# Data: PubChem BioAssay AID624296 (National Center for Advancing Translational Sciences (NCATS), 2012)
# Out of some 350,000 compounds screened, about 9,900 (2.8%) were called active. This list was built around the results that the source calls inconclusive (neither active nor inactive); the mix of calls is not that of the screen. Calls follow the shape of the dose curve; as a rule, active = well fitted activation curve with a large enough effect; inconclusive = small, poorly fitted or top-dose-only effect; inactive = no such curve, though single readings can be large or run the other way. No potency is given beside an inconclusive call; the fits are too rough.
# Assay: A quantitative high throughput screen for small molecules that induce DNA re-replication in MCF 10a normal breast cells. Also: nearly all actives have a fitted effect of over 50% in size.
# Conditions: MCF 10A DNA re-replication, Hoechst nuclear intensity, 48 h; series mostly up to 46.1 µM
# Potency is read from the fitted curve at half-maximal effect; tags tell the direction and shape of the fitted curve.
row,SMILES,Potency
1,COc1ccc(/C=N/NC(=O)c2ccccc2OC)cc1COc1ccc(C)cc1,"inconclusive [activator, full curve, poor fit]"
2,COCc1[nH]nc2c1C(c1ccc(F)cc1F)C(C#N)=C(N)O2 (stereo not drawn),inactive
3,Cc1ccc(OC(=S)Nc2ccc(O)cc2)cc1,"inconclusive [activator, single point]"
4,CCCN(CCC)CCNC(=O)Cn1cnc2sc(C)c(S(=O)(=O)N3CCOCC3)c2c1=O,"inconclusive [activator, single point]"
5,Cc1ccc(CCNC(=O)c2coc3nc4ccccc4nc23)cc1,"inconclusive [activator, single point]"
6,O=C(N/N=C/c1ccc(F)cc1)c1ccc(-n2cnnn2)cc1,"inconclusive [activator, full curve, poor fit]"
7,COc1ccc(C2=C(C)C(N3CCN(C(=O)c4ccco4)CC3)=NS2(=O)=O)cc1,"inconclusive [activator, partial curve]"
8,CC1(C)C(=O)NC(=O)N1Cc1ccccc1,"inconclusive [activator, single point]"
9,O=C(CSC1=NCCN1)Nc1cccc(C(F)(F)F)c1,"inconclusive [activator, single point]"
10,CCOC(=O)Cc1c(C)nc2c(-c3ccccc3OC)c(C)nn2c1C,inactive
11,Cc1c(C(=O)C(=O)N2CCN(C)CC2)c2ccccc2n1C,inactive
12,N#Cc1cc2c(=O)n3ccccc3nc2n(CCCn2ccnc2)c1=N,active: 9.2 µM
13,OC(CN1c2ccccc2Sc2ccccc21)Cn1nnc2ccccc21 (stereo not drawn),"inconclusive [activator, partial curve, poor fit]"
14,COCc1[nH]nc2c1C(c1ccsc1)C(C#N)=C(N)O2 (stereo not drawn),inactive
15,CCOC(=O)c1c(C)n(-c2ccccc2)c2ccc(O)cc12,"inconclusive [activator, single point]"
16,Cc1c(C)c2ccc(OCC(=O)N3CC[C@@]4(O)CCCC[C@H]4C3)c(C)c2oc1=O,inactive
17,O=C(/C=C/c1ccc2c(c1)OCO2)N1CCN(c2n[nH]c(=O)[nH]c2=O)CC1,"inconclusive [activator, single point]"
18,CC(=O)OCC1=C(C(=O)O)N2C(=O)C(NC(=O)c3ccc(F)cc3)C2SC1 (stereo not drawn),"inconclusive [activator, single point]"
19,CCN1CCCC1CNC(=O)c1cc2c(OC)cccc2[nH]1 (stereo not drawn),"inconclusive [activator, single point]"
20,O=C1CCC[C@@H]2[C@H](Cc3ccccc3)[C@@H](O)C[C@@H]3CCN1[C@@H]32,inactive
21,Cc1cccc([C@@H]2[C@@H]3C(=O)N(Cc4ccccc4)C(=O)[C@@H]3[C@]3(Cc4ccccc4)C(=O)N(c4ccccc4)C(=O)N23)c1,"inconclusive [activator, full curve, poor fit]"
22,CC(C)(C)Cc1nnc(NC(=O)CCC2CCCCC2)s1,inactive

row,SMILES,Potency
1,Cc1ccc(C(=O)Nc2ncc(Cc3ccc(F)cc3)s2)o1,"inconclusive [activator, partial curve, poor fit]"
2,Cc1ccn2cc(-c3cccc(NC(=O)c4ccccc4)c3)nc2c1,"inconclusive [activator, single point]"
3,CCCC(=O)Nc1ccc2c(c1)nc(CN1CCCCC1)n2C,"inconclusive [activator, single point]"
4,CC(NC(=O)c1ccc(S(=O)(=O)NCc2ccco2)cc1)c1ccc(F)cc1 (stereo not drawn),inactive
5,COc1ccc(C(C)=O)cc1COc1cccnc1[N+](=O)[O-],"inconclusive [activator, single point]"
6,O=C(c1ccccc1)N(C1=NCCCCS1)c1ccccc1,inactive
7,CC1CCCCC1NC(=S)NC(=O)c1ccccc1Cl (stereo not drawn),"inconclusive [activator, single point]"
8,CC(C)(C)c1ccc(/C=C/C(=O)Nc2ccncc2)cc1,"inconclusive [activator, single point]"
9,Cc1ccc(S(=O)(=O)/N=C2/NC(=O)/C(=C/c3ccc(Br)o3)S2)cc1,"inconclusive [activator, single point]"
10,CCN(CC)CCNC(=O)CS(=O)Cc1nc(-c2ccc(Cl)cc2)oc1C (stereo not drawn),"inconclusive [activator, partial curve, poor fit]"
11,CCOc1ccccc1/C=N/n1c(C2CCCCC2)n[nH]c1=S,active: 25.9 µM
12,O=C(NC1CCCc2ccccc21)c1ccccn1 (stereo not drawn),"inconclusive [activator, full curve, poor fit]"
13,O=C(/C=C/c1cccc(Cl)c1)N1CCC(Cc2ccccc2)CC1,"inconclusive [activator, partial curve, poor fit]"
14,O=C(O)c1cc(S(=O)(=O)N2CCCc3ccccc32)ccc1Cl,inactive
15,Cc1cccc(NC(=O)C(C)OC(=O)c2ccccc2NS(=O)(=O)c2cc(C)c(C)c([N+](=O)[O-])c2)c1 (stereo not drawn),inactive
16,CC1=NN(C(=O)c2ccc(Br)cc2)C(O)(c2ccccc2)C1 (stereo not drawn),"inconclusive [activator, full curve, poor fit]"
17,CN(CC(=O)Nc1cccc(S(=O)(=O)N2CCCC2)c1)CC(=O)Nc1ccc(Cl)c(C(F)(F)F)c1,"inconclusive [activator, single point]"
18,Cc1cc(C)nc(SCc2cc(=O)c(OC(=O)c3ccc(Cl)c([N+](=O)[O-])c3)co2)n1,"inconclusive [activator, single point]"
19,Cc1ccc(/C=N/NC(=O)c2ccccc2OCc2cccc(Br)c2)o1,"inconclusive [activator, single point]"
20,CN(CC(=O)Nc1ccccc1Cl)C(=O)CN1C(=O)C2CCCCC2C1=O (stereo not drawn),inactive
21,O=C(C1CCCO1)N1CCN(c2ccc(F)cc2)CC1 (stereo not drawn),"inconclusive [activator, single point]"
